Where a name gives a salt, the structure may show the parent alone. Read-outs that look alike come from different tables or passages of the source. The name of at least one read-out is uncertain.
System: recombinant HIV-1 clones (patient protease/RT sequences in HIV-1 NL4-3)
Type: cell-based
[1] = RT mutation 2-5 TAMs, K65 and/or Q151, N=4, averaged
[2] = RT mutation 2-5 TAMs, N=16, averaged
[3] = RT mutation 6 TAMS, M184, N=7, averaged
[4] = RT mutation 6 TAMs, N=5, averaged
[5] = RT mutation K65 and/or Q151, M184, N=12, averaged
[6] = RT mutation K65 and/or Q151, N=7, averaged
[7] = RT mutation M184, N=12, averaged
[8] = Wild-type clones, N=8, averaged
[9] = Protease mutation D30, L90, N=5, averaged
[10] = Protease mutation D30, N=8, averaged
[11] = Protease mutation M46, V82, I84, L90, N=3, averaged
[12] = Protease mutation M46, V82, I84 or L90, N=14, averaged
[13] = Protease mutation M46, V82, N=14, averaged
[14] = RT mutation K103, N=46, averaged
[15] = RT mutation K103, Y181, N=14, averaged
[16] = RT mutation K103, Y188, N=6, averaged

| Compound | Fold-increase (EC50 fold increase above reference clone NL4-3) | Fold-increase (EC50 fold increase above reference clone NL4-3) [1] | Fold-increase (EC50 fold increase above reference clone NL4-3) [2] | Fold-increase (EC50 fold increase above reference clone NL4-3) [3] | Fold-increase (EC50 fold increase above reference clone NL4-3) [4] | Fold-increase (EC50 fold increase above reference clone NL4-3) [5] | Fold-increase (EC50 fold increase above reference clone NL4-3) [6] | Fold-increase (EC50 fold increase above reference clone NL4-3) [7] | Fold-increase (EC50 fold increase above reference clone NL4-3) [8] | Fold-increase (EC50 fold increase above reference clone NL4-3) [9] | Fold-increase (EC50 fold increase above reference clone NL4-3) [10] | Fold-increase (EC50 fold increase above reference clone NL4-3) [11] | Fold-increase (EC50 fold increase above reference clone NL4-3) [12] | Fold-increase (EC50 fold increase above reference clone NL4-3) [13] | Fold-increase (EC50 fold increase above reference clone NL4-3) [14] | Fold-increase (EC50 fold increase above reference clone NL4-3) [15] | Fold-increase (EC50 fold increase above reference clone NL4-3) [16] |
| --- | --- | --- | --- | --- | --- | --- | --- | --- | --- | --- | --- | --- | --- | --- | --- | --- | --- |
| Nc1nc(NC2CC2)c2ncn([C@H]3C=C[C@@H](CO)C3)c2n1 [ABC, abacavir sulfate] | 19.3 | 19.8 | 6.6 | 7.4 | 6.9 | 24.1 | 13.3 | 3.1 | 0.9 | – | – | – | – | – | – | – | – |
| COC(=O)N[C@H](C(=O)N[C@@H](Cc1ccccc1)[C@@H](O)CN(Cc1ccc(-c2ccccn2)cc1)NC(=O)[C@@H](NC(=O)OC)C(C)(C)C)C(C)(C)C [ATV, atazanavir] | – | – | – | – | – | – | – | – | 0.7 | 41.4 | 3.7 | 45.0 | 34.7 | 32.2 | – | – | – |
| COc1cc2c(cc1Cc1cccc(Cl)c1F)c(=O)c(C(=O)O)cn2[C@H](CO)C(C)C [Compound I, 6-(3-chloro-2-fluorobenzyl)-1-[(2S)-1-hydroxy-3-methylbutan-2-yl]-7-methoxy-4-oxo-1,4-dihydroquinoline-3-carboxylic acid] | 1.2 | 1.1 | 1.0 | 1.0 | 0.9 | 0.9 | 0.9 | 0.9 | 0.9 | 1.0 | 1.0 | 1.0 | 1.0 | 0.9 | 0.9 | 1.0 | 0.8 |
| CC(C)Nc1cccnc1N1CCN(C(=O)c2cc3cc(NS(C)(=O)=O)ccc3[nH]2)CC1 [DLV, delavirdine mesylate] | – | – | – | – | – | – | – | – | 1.9 | – | – | – | – | – | 86.9 | 122.1 | 109.2 |
| O=C1Nc2ccc(Cl)cc2[C@@](C#CC2CC2)(C(F)(F)F)O1 [Efavirenz, efavirenz] | – | – | – | – | – | – | – | – | 1.3 | – | – | – | – | – | 128.6 | 154.7 | 218.0 |
| Cc1cccc(C)c1OCC(=O)N[C@@H](Cc1ccccc1)[C@@H](O)C[C@H](Cc1ccccc1)NC(=O)[C@H](C(C)C)N1CCCNC1=O [LPV, lopinavir] | – | – | – | – | – | – | – | – | 0.7 | 11.6 | 1.1 | 82.3 | 112.0 | 76.8 | – | – | – |
| Cc1ccnc2c1NC(=O)c1cccnc1N2C1CC1 [NVP, nevirapine] | – | – | – | – | – | – | – | – | 1.2 | – | – | – | – | – | 127.3 | 187.1 | 197.0 |
| Cc1c(O)cccc1C(=O)N[C@@H](CSc1ccccc1)[C@H](O)CN1C[C@H]2CCCC[C@H]2C[C@H]1C(=O)NC(C)(C)C [Nelfinavir, nelfinavir mesylate] | – | – | – | – | – | – | – | – | 0.9 | 209.2 | 37.8 | 64.0 | 41.7 | 34.6 | – | – | – |
| CC(C)c1nc(CN(C)C(=O)N[C@H](C(=O)N[C@@H](Cc2ccccc2)C[C@H](O)[C@H](Cc2ccccc2)NC(=O)OCc2cncs2)C(C)C)cs1 [RTV, ritonavir] | – | – | – | – | – | – | – | – | 0.8 | 29.2 | 1.3 | 163.3 | 130.6 | 59.5 | – | – | – |
| CC(C)(C)NC(=O)[C@@H]1C[C@@H]2CCCC[C@@H]2CN1C[C@@H](O)[C@H](Cc1ccccc1)NC(=O)[C@H](CC(N)=O)NC(=O)c1ccc2ccccc2n1 [SQV, saquinavir mesylate] | – | – | – | – | – | – | – | – | 0.7 | 114.4 | 1.3 | 108.0 | 45.4 | 42.8 | – | – | – |
| Cc1cn([C@H]2C=C[C@@H](CO)O2)c(=O)[nH]c1=O [d4T, sanilvudine] | 17.0 | 21.0 | 4.8 | 2.7 | 6.2 | 9.0 | 10.3 | 0.8 | 1.0 | – | – | – | – | – | – | – | – |

From patent publication US20090018162A1, “USE OF 6-(3-CHLORO-2-FLUOROBENZYL)-1-[(2S)-1-HYDROXY-3-METHYLBUTAN-2-YL]-7-METHOXY-4-OXO-1,4-DIHYDROQUINOLINE-3-CARBOXYLIC ACID OR SALT THEREOF FOR TREATING RETROVIRUS INFECTION” (priority 2006, published 2009)
